Data published in PubChem BioAssay AID1159614 (National Center for Advancing Translational Sciences (NCATS), 2016).
Screen size: about 45,000 compounds; about 65 (0.1%) were called active. Calls come from the whole dose curve; as a rule, active = well fitted activation curve with a large enough effect; inconclusive = small, poorly fitted or top-dose-only effect; inactive = no such curve, though single readings can be large or run the other way. Some of the results follow.

target: Galactocerebrosidase (Homo sapiens) (UniProt P54803); assay: A Novel Cell-Based Assay to Identify Small Molecules for B -Galactocerebrosidase; conditions: 145M-Twi-hGALC-G270D cells (Twitcher mouse brain line with human GALC G270D), HMU-beta-Gal fluorescence, 48 h; series mostly up to 57.5 µM; activation: at the top concentration; note: nearly all actives have a fitted effect of over 65% in size; for activation: 0% is about no effect
Outline: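 Fluorescence readout: HMU-β-gal cleavage by mutant GALC (0.1 mM final, citrate/phosphate pH 5.2 with 1 mg/mL taurocholate), stopped with carbonate/bicarbonate plus Triton X-100. Cells: murine Twitcher 145M-Twi expressing human G270D GALC; qHTS for activators.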
Potency is the fitted concentration of half-maximal effect.

UniProt P54803, sequence (P54803 whole entry, looked up): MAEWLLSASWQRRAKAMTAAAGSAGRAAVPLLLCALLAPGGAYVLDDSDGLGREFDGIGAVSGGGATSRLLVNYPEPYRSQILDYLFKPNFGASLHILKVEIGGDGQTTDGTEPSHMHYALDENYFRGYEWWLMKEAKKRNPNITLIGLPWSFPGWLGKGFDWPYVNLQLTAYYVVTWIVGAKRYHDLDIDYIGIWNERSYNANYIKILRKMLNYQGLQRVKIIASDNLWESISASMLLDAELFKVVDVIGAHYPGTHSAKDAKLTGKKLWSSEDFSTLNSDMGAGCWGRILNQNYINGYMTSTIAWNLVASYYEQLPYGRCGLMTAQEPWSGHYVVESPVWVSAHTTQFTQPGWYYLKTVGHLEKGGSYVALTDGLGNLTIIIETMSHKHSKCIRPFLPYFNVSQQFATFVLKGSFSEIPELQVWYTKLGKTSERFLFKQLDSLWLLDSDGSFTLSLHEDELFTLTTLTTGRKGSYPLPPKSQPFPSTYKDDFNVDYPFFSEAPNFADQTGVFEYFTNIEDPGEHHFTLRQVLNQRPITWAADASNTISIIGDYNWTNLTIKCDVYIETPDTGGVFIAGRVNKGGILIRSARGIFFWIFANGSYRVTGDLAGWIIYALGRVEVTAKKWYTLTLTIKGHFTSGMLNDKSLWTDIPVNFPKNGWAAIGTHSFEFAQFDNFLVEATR

Structure (SMILES) | activation | Potency
CCc1ccc(-n2nc(CO)c(C(=O)NCCCc3ccccc3)n2)cc1 | inactive: -7.58% | –
Cc1ccc(-c2nc(NC(=O)CSc3nc(C)nc4sc5c(c34)CCCC5)ns2)cc1 | inactive: -18.3% | –
CC1CCN(S(=O)(=O)c2ccc3c(ccn3CCC(=O)NCc3ccccc3F)c2)CC1 | inactive: -20.5% | –
O=C(OCc1ccccc1)c1ccccc1 | inactive: -15.2% | –
CCOC(=O)c1cccc(NC(=O)C2Cc3ccccc3N2C(=O)c2ccccc2)c1 (configuration not stated) | inactive: 5.62% | –
CCOc1ccc(C(=O)NC2CC(=O)N(c3ccc(C)cc3)C2)cc1OCC (configuration not stated) | inactive: 0.316% | –
O=C(Nc1ccc2c(c1)N(C1CCCC1)C(=O)c1ccccc1S2)c1ccccc1F | inactive: -8.36% | –
COc1ccc(NC(=O)c2c(-c3ccccc3)c(-c3ccccc3)nn(C)c2=O)cc1OC | inactive: -8.4% | –
Cc1cccc(-n2ncc3c(Nc4ccc(C)c(Cl)c4)ncnc32)c1 | inactive: -15.3% | –
Cc1sc2c(c1C)c(=O)n(Cc1ccccc1)c(=O)n2Cc1ccc(F)cc1 | inactive: 2.56% | –
Cc1ccccc1NC(=O)CCS(=O)(=O)c1cc(Br)cc2c1N(C(=O)C1CC1)CC2 | inactive: -12.9% | –
CCc1nn(CC(=O)N2CCCCC2)c(=O)c2cc3sc(C)cc3n12 | inactive: -10.2% | –
Cc1ccccc1CNC(=O)CN1C(=O)C2CCCCN2c2ccc(C(=O)N3CCCC3)cc21 (configuration not stated) | inactive: -5.9% | –
Cc1ccc(C)c(Cn2c(=O)n(C(C)C)c(=O)c3oc4ccccc4c32)c1 | inactive: -1.48% | –
Cc1ccc(C(=O)c2oc3ccccc3c2NC(=O)COc2ccc(C(C)C)cc2)cc1 | inactive: -4.17% | –
O=C(Nc1ccc(S(=O)(=O)Nc2ncccn2)cc1)c1cc(=O)c2ccccc2o1 | inactive: 29.9% | –
COc1ccc(-c2cn3cccnc3n2)cc1NC(=O)Nc1ccc(Cl)cc1 | inactive: -2.83% | –
CCOc1ccc(NC(=O)c2ccc3c(c2)CCN3S(=O)(=O)CC)cc1 | inactive: -6.39% | –
COc1ccc(-c2cc(-c3ccccc3)nc3c2COc2ccc(F)cc2-3)cc1 | inactive: -10.8% | –
CCN(CC)C(=O)Cn1c(=O)cc(C)c2c(C)nn(-c3ccc(C)cc3)c21 | inactive: -8.23% | –
COc1ccc2[nH]c3c(c2c1)CCN(C(=O)c1cccc(Cl)c1)C3c1ccc(F)cc1 (configuration not stated) | inactive: -33.1% | –
Cc1ccc(S(=O)(=O)N2CCCc3cc(NS(=O)(=O)c4cc(C)ccc4C)ccc32)cc1 | inactive: -17.6% | –
CC(C)c1nn2c(=O)cc(COC(=O)c3ccc(NC(=O)C4CCCCC4)cc3)nc2s1 | inactive: -3.2% | –
Cc1ccc(CSc2ncc(Cl)c(C(=O)NCc3ccccc3)n2)cc1 | inactive: -14.5% | –

Structure (SMILES) | activation | Potency
CC1(C)S[C@@H]2[C@H](NC(=O)C(c3ccccc3)S(=O)(=O)O)C(=O)N2[C@H]1C(=O)O (some centres not stated) | inactive: -8.31% | –
CCn1cc(C(=O)NCCCOC(C)C)c(=O)c2cc(S(=O)(=O)N3CCOCC3)ccc21 | inactive: -12.5% | –
CCOC(=O)c1cnc2c(ccc3ccccc32)c1Nc1ccc(N(C)C)cc1 | inactive: -12.6% | –
CCc1ccc(OCC2c3cc(OC)c(OC)cc3CCN2C(=O)c2ccc(S(=O)(=O)N3CCCC3)cc2)cc1 (configuration not stated) | inactive: -20.3% | –
COC(=O)c1ccc2c(=O)n(CCCCCC(=O)NCCc3ccccc3)c(=O)[nH]c2c1 | inactive: -13.9% | –
Cc1cc(NC(=O)N2CCC(CN3CCCCCC3)CC2)ccc1Br | inactive: -5.93% | –
O=C(Cn1ccc2cc(S(=O)(=O)N3CCCCCC3)ccc21)NCc1ccccc1Cl | inactive: -0.02% | –
COc1cccc(NC(=O)c2c(C)nn(-c3cccc(C)c3)c2-n2cccc2)c1 | inactive: -14.2% | –
COc1ccc(C)cc1-n1c(-c2ccc(Cl)cc2)cc2c1CC(C)(C)CC2=O | inactive: -16.5% | –
Cc1cccn2c(=O)c3cc(C(=O)NCC(C)C)sc3nc12 | – | active: 3.98 µM
COc1ccc(N2CCN(C(CNS(=O)(=O)c3ccc(OC)c(C)c3)c3ccco3)CC2)cc1 (configuration not stated) | inactive: -13.6% | –
Cc1noc2ncnc(N3CCN(c4cccc(C(F)(F)F)c4)CC3)c12 | inactive: -52.2% | –
Nc1c(C(=O)Nc2ccccc2Br)sc2nc(-c3cccs3)ccc12 | inactive: -7.9% | –
O=C(CSc1nc2c([nH]c3ccccc32)c(=O)n1-c1ccccc1)Nc1ccc2c(c1)OCO2 | inactive: -26.6% | –
COc1ccc(-c2nc(Cn3c(=O)cc(C)c4c(C)nn(-c5ccccc5)c43)c(C)o2)cc1OC | inactive: -5.46% | –
CN(CCOc1ccc(CC2SC(=O)NC2=O)cc1)c1ccccn1 (configuration not stated) | inactive: -9.12% | –
CCC1Sc2ccccc2N(CC(=O)NCc2ccc(C)cc2)C1=O (configuration not stated) | inactive: -17.5% | –
O=S(=O)(c1ccc(Cl)cc1)c1nnn2c1nc(NC1CCCC1)c1sccc12 | inactive: -0.504% | –
Cc1ccc(CNC(=O)c2ccc(CSc3nc4ccncc4n3Cc3ccc(C)cc3)cc2)cc1 | inactive: -6.23% | –
COc1cccc(C(=O)Nc2ccc3nc(SCC(=O)N(C)c4ccccc4)sc3c2)c1 | inactive: 19.4% | –
CCOc1ccc(NC(=O)c2c(C)oc3nc(C)nc(N4CCCC4)c23)cc1 | inactive: -5.33% | –
O=C(NCCc1ccc(Cl)cc1)C1CCN(Cc2cc3ccccc3n2Cc2ccccc2)CC1 | inactive: 1.18% | –
COc1ccc(CCNC(=O)CCc2cn(Cc3ccccc3Cl)c3ccccc23)c(OC)c1 | inactive: -0.299% | –
